B1: 1H3-hIgG1-L6-hCD25(1-164)-L20-hIL-2 (N88R) (other)
heavy: EVQLVESGGGLVQPGRSLKLSCAVSGFTFSDYAMAWVRQAPKKGLEWVATISYDGSRTYYRDSVKGRFTISRDNAKITLYLQMDSLRSEDTATYYCARHGSGYFDYWGQGVMVTVSS[not shown - human IgG1 constant region]SGGGGSELCDDDPPEIPHATFKAMAYKEGTMLNCECKRGFRRIKSGSLYMLCTGNSSHSSWDNQCQCTSSATRNTTKQVTPQPEEQKERKTTEMQSPMQPVDQASLPGHCREPPPWENEATERIYHFVVGQMVYYQCVQGYRALHRGPAESVCKMTHGKTRWTQPQLICTSGGGGSGGGGSGGGGSGGGS[not shown - about 150 residues]
light: DTVLTQSPALAVSPGERVTISCRASESVRTGVHWYQQKPGQQPKLLIYGASNLESGVPARFSGSGSGTDFTLTIDPVEADDTATYFCQQSWNDPFTFGSGTKLEIKRTVAAPSVFIFPPSDEQLKSGTASVVCLLNNFYPREAKVQWKVDNALQSGNSQESVTEQDSKDSTYSLSSTLTLSKADYEKHKVYACEVTHQGLSSPVTKSFNRGEC
B2: 1H3-hIgG1-L6-hCD25(1-164)-L20-hIL-2 (N88E) (other)
heavy: EVQLVESGGGLVQPGRSLKLSCAVSGFTFSDYAMAWVRQAPKKGLEWVATISYDGSRTYYRDSVKGRFTISRDNAKITLYLQMDSLRSEDTATYYCARHGSGYFDYWGQGVMVTVSS[not shown - human IgG1 constant region]SGGGGSELCDDDPPEIPHATFKAMAYKEGTMLNCECKRGFRRIKSGSLYMLCTGNSSHSSWDNQCQCTSSATRNTTKQVTPQPEEQKERKTTEMQSPMQPVDQASLPGHCREPPPWENEATERIYHFVVGQMVYYQCVQGYRALHRGPAESVCKMTHGKTRWTQPQLICTSGGGGSGGGGSGGGGSGGGS[not shown - about 150 residues]
light: B1 light
B3: 1H3-hIgG1-L6-hCD25(1-164)-L20-hIL-2 (N88F) (other)
heavy: EVQLVESGGGLVQPGRSLKLSCAVSGFTFSDYAMAWVRQAPKKGLEWVATISYDGSRTYYRDSVKGRFTISRDNAKITLYLQMDSLRSEDTATYYCARHGSGYFDYWGQGVMVTVSS[not shown - human IgG1 constant region]SGGGGSELCDDDPPEIPHATFKAMAYKEGTMLNCECKRGFRRIKSGSLYMLCTGNSSHSSWDNQCQCTSSATRNTTKQVTPQPEEQKERKTTEMQSPMQPVDQASLPGHCREPPPWENEATERIYHFVVGQMVYYQCVQGYRALHRGPAESVCKMTHGKTRWTQPQLICTSGGGGSGGGGSGGGGSGGGS[not shown - about 150 residues]
light: B1 light
B4: 1H3-hIgG1-L6-hCD25(1-164)-L20-hIL-2 (N88I) (other)
heavy: EVQLVESGGGLVQPGRSLKLSCAVSGFTFSDYAMAWVRQAPKKGLEWVATISYDGSRTYYRDSVKGRFTISRDNAKITLYLQMDSLRSEDTATYYCARHGSGYFDYWGQGVMVTVSS[not shown - human IgG1 constant region]SGGGGSELCDDDPPEIPHATFKAMAYKEGTMLNCECKRGFRRIKSGSLYMLCTGNSSHSSWDNQCQCTSSATRNTTKQVTPQPEEQKERKTTEMQSPMQPVDQASLPGHCREPPPWENEATERIYHFVVGQMVYYQCVQGYRALHRGPAESVCKMTHGKTRWTQPQLICTSGGGGSGGGGSGGGGSGGGS[not shown - about 150 residues]
light: B1 light
B5: 1H3-hIgG1-L6-hCD25(1-164)-L20-hIL-2 (I92A) (other)
heavy: EVQLVESGGGLVQPGRSLKLSCAVSGFTFSDYAMAWVRQAPKKGLEWVATISYDGSRTYYRDSVKGRFTISRDNAKITLYLQMDSLRSEDTATYYCARHGSGYFDYWGQGVMVTVSS[not shown - human IgG1 constant region]SGGGGSELCDDDPPEIPHATFKAMAYKEGTMLNCECKRGFRRIKSGSLYMLCTGNSSHSSWDNQCQCTSSATRNTTKQVTPQPEEQKERKTTEMQSPMQPVDQASLPGHCREPPPWENEATERIYHFVVGQMVYYQCVQGYRALHRGPAESVCKMTHGKTRWTQPQLICTSGGGGSGGGGSGGGGSGGGS[not shown - about 150 residues]
light: B1 light
B6: 1H3-hIgG1-L6-hCD25(1-164)-L20-hIL-2 (E95A) (other)
heavy: EVQLVESGGGLVQPGRSLKLSCAVSGFTFSDYAMAWVRQAPKKGLEWVATISYDGSRTYYRDSVKGRFTISRDNAKITLYLQMDSLRSEDTATYYCARHGSGYFDYWGQGVMVTVSS[not shown - human IgG1 constant region]SGGGGSELCDDDPPEIPHATFKAMAYKEGTMLNCECKRGFRRIKSGSLYMLCTGNSSHSSWDNQCQCTSSATRNTTKQVTPQPEEQKERKTTEMQSPMQPVDQASLPGHCREPPPWENEATERIYHFVVGQMVYYQCVQGYRALHRGPAESVCKMTHGKTRWTQPQLICTSGGGGSGGGGSGGGGSGGGS[not shown - about 150 residues]
light: B1 light
B7: 1H3-hIgG1-L6-hCD25(1-164)-L20-hIL-2 (E95K) (other)
heavy: EVQLVESGGGLVQPGRSLKLSCAVSGFTFSDYAMAWVRQAPKKGLEWVATISYDGSRTYYRDSVKGRFTISRDNAKITLYLQMDSLRSEDTATYYCARHGSGYFDYWGQGVMVTVSS[not shown - human IgG1 constant region]SGGGGSELCDDDPPEIPHATFKAMAYKEGTMLNCECKRGFRRIKSGSLYMLCTGNSSHSSWDNQCQCTSSATRNTTKQVTPQPEEQKERKTTEMQSPMQPVDQASLPGHCREPPPWENEATERIYHFVVGQMVYYQCVQGYRALHRGPAESVCKMTHGKTRWTQPQLICTSGGGGSGGGGSGGGGSGGGS[not shown - about 150 residues]
light: B1 light

Each binder was assayed against T1, high-affinity hIL-2 receptor (IL-2Rαβγ) (human, UniProt P01589 22-272; P14784 27-551; P31785 23-369) (assay: cell-based or functional assay).
T1 sequence 1: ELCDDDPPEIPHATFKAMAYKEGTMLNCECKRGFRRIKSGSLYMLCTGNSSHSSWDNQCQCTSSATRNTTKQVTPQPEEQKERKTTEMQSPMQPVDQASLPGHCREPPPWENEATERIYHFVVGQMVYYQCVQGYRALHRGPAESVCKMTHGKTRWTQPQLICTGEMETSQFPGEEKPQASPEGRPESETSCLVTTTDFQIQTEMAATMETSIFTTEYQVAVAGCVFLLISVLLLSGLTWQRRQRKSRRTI
T1 sequence 2: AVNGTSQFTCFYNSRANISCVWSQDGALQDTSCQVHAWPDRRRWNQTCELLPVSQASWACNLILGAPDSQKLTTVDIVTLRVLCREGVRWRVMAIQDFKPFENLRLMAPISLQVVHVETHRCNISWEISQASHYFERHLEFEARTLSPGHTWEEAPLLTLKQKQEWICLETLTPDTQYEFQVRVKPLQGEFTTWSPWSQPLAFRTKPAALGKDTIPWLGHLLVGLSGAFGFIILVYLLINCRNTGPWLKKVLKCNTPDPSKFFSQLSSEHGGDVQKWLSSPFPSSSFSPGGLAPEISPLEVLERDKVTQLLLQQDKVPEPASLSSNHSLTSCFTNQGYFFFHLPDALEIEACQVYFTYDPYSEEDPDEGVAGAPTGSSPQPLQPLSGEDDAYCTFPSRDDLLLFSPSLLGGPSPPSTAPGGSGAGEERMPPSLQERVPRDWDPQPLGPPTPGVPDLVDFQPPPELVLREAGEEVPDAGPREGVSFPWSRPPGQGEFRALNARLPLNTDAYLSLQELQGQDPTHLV
T1 sequence 3: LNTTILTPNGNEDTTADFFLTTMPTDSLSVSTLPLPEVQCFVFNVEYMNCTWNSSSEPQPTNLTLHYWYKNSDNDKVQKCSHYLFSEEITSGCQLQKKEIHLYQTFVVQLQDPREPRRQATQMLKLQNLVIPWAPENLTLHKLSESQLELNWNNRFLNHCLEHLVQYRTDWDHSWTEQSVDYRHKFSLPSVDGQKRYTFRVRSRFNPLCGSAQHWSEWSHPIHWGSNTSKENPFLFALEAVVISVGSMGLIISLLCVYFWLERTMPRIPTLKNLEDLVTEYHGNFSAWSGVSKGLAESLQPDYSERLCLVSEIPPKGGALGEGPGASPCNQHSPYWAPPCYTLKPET
With B1 the “Fold change from rhIL-2 (NK-92), pSTAT5 titration” value was 274 fold. With B2 the “Fold change from rhIL-2 (NK-92), pSTAT5 titration” value was over 10000 fold. With B3 the “Fold change from rhIL-2 (NK-92), pSTAT5 titration” value was over 10000 fold. B4 was tested, and the “Fold change from rhIL-2 (NK-92), pSTAT5 titration” value was 7780 fold. In the case of B5, the “Fold change from rhIL-2 (NK-92), pSTAT5 titration” value is reported as 26 fold. With B6 the “Fold change from rhIL-2 (NK-92), pSTAT5 titration” value was 30 fold. In the case of B7, the “Fold change from rhIL-2 (NK-92), pSTAT5 titration” value is reported as 792 fold.

The binders below were run against T2, intermediate affinity hIL-2 receptor complex (IL-2Rβγ) (human, UniProt P14784 27-551; P31785 23-369) (assay: cell-based or functional assay).
T2 sequence 1: T1 sequence 2
T2 sequence 2: T1 sequence 3
In the case of B1, the “Fold change from rhIL-2 (TF1 + IL-2Rβ), pSTAT5 titration” value (from here on “Fold change from rhIL-2 (TF1 + IL-2Rβ)”) is reported as over 10000 fold. For B2, the “Fold change from rhIL-2 (TF1 + IL-2Rβ)” value was over 10000 fold. In the case of B3, the “Fold change from rhIL-2 (TF1 + IL-2Rβ)” value is reported as over 10000 fold. For B4, the “Fold change from rhIL-2 (TF1 + IL-2Rβ)” value was over 10000 fold. With B5 the “Fold change from rhIL-2 (TF1 + IL-2Rβ)” value was 95 fold. In the case of B6, the “Fold change from rhIL-2 (TF1 + IL-2Rβ)” value is reported as 16 fold. In the case of B7, the “Fold change from rhIL-2 (TF1 + IL-2Rβ)” value is reported as about 434 fold.
